Experimental data published in publication PMC8814668, “Mechanism of Atg9 recruitment by Atg11 in the cytoplasm-to-vacuole targeting pathway” (The Journal of Biological Chemistry, 2022).
Where a chain is given by its changes, count along the chain named. Numbers in names are those of the source. No constants are given. Whether binding was seen depends on the method and setting. For some assays here: Binding seen in cells or lysates may run through a third protein. Some entries that bind do so weakly or less than the wild type. Sequences can lack the tags named with a protein. Values belong to the binder of their own block, whether it stands above or below them.

Key:
[1] = biological target: T1, EGFP-Atg11 (full-length yeast Atg11) (yeast (S. cerevisiae)) (UniProt Q12527); assay: ITC; Atg9-NTD (300 to 500 μM, syringe) into EGFP-Atg11 (50 to 100 μM, cell); 25 °C; 20 mM Tris pH 7.4, 300 mM NaCl; single binding site; two replicates; both purified
T1 sequence: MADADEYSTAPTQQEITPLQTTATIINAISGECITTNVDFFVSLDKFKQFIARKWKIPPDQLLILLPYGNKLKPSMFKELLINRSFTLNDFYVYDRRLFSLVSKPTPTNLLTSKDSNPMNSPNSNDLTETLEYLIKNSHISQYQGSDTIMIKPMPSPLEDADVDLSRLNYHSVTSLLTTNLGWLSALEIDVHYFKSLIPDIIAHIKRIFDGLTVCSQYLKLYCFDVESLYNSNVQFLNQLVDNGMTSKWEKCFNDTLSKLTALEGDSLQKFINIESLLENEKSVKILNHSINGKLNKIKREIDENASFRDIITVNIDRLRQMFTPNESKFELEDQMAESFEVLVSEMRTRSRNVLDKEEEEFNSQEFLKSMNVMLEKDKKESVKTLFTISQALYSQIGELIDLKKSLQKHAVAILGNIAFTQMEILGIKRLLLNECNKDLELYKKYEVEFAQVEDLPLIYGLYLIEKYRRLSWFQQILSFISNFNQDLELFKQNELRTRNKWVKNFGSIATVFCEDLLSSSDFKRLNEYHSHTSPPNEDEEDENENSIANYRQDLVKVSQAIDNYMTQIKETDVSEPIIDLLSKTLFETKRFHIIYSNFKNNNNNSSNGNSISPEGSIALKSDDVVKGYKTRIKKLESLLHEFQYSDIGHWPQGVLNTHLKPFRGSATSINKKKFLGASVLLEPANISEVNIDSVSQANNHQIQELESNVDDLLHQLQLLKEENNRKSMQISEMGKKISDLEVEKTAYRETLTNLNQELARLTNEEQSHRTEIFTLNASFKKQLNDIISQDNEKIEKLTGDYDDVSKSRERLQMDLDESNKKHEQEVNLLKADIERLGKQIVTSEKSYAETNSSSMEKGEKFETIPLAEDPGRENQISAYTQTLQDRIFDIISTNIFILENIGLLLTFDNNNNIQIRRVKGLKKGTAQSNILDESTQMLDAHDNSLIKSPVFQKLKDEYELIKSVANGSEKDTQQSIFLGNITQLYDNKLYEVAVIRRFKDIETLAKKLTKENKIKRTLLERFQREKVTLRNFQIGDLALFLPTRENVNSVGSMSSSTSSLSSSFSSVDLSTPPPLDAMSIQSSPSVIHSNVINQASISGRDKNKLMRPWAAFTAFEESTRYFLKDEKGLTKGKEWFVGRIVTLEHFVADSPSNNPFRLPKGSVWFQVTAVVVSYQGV

[2] = biological target: T1, EGFP-Atg11 (full-length yeast Atg11) (yeast (S. cerevisiae)); assay: microscopy-based protein–protein interaction (MBPPI) assay; GFP-Trap beads coated with 10 μM EGFP-Atg11, 1 μM Atg9-NTD-(1–255)-mCherry in solution; 20 mM Tris pH 7.4, 300 mM NaCl; room temperature; confocal imaging, mCherry signal normalised to EGFP; both purified
[3] = biological target: T2, Atg9-GFP, wild type (S. cerevisiae) (UniProt Q12142); assay: co-IP; yeast lysates (25 mM Tris-HCl pH 7.4, 150 mM NaCl, 0.2% NP-40) on GFP-trap magnetic agarose beads overnight at 4 °C; Western blot with anti-Atg11 and anti-GFP
T2 sequence: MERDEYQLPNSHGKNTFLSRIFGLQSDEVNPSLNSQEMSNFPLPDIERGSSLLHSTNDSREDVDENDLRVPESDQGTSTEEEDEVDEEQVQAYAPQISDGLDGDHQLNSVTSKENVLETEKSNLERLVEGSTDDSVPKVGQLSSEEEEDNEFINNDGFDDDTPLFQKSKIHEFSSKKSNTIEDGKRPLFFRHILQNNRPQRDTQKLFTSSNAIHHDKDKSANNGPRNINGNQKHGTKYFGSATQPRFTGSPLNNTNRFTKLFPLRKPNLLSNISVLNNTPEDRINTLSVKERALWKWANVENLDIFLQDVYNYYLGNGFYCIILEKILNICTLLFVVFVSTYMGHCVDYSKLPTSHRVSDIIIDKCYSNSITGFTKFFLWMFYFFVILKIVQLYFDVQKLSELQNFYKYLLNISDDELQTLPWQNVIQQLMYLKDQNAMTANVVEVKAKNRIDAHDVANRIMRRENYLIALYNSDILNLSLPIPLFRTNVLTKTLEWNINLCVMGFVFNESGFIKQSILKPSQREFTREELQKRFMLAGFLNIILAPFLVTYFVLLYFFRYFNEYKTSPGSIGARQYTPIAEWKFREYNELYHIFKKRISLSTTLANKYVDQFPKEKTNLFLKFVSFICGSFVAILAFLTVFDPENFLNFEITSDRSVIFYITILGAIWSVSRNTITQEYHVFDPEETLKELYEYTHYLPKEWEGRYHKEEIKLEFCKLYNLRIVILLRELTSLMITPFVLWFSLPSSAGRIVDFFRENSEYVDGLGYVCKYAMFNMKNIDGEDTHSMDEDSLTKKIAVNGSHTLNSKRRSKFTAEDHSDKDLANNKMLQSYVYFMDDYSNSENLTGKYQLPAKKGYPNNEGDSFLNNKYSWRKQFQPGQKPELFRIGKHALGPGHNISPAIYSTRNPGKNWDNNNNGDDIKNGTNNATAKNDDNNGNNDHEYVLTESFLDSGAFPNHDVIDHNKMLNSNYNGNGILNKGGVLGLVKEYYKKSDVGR

[4] = biological target: T3, Atg9-M1+2-GFP (S. cerevisiae) (UniProt Q12142); assay: as above
T3 sequence: T2 sequence with L164A, F165A, L188A, F189A

binding [1]: binds weakly
B1: Atg9-NTD-(1–255)-mCherry M1 (L164A/F165A) (domain or fragment, UniProt Q12142 1-255)
chain: MERDEYQLPNSHGKNTFLSRIFGLQSDEVNPSLNSQEMSNFPLPDIERGSSLLHSTNDSREDVDENDLRVPESDQGTSTEEEDEVDEEQVQAYAPQISDGLDGDHQLNSVTSKENVLETEKSNLERLVEGSTDDSVPKVGQLSSEEEEDNEFINNDGFDDDTPAAQKSKIHEFSSKKSNTIEDGKRPLFFRHILQNNRPQRDTQKLFTSSNAIHHDKDKSANNGPRNINGNQKHGTKYFGSATQPRFTGSPLNNT

binding [1]: binds weakly
B2: Atg9-NTD-(1–255)-mCherry M2 (L188A/F189A) (domain or fragment, UniProt Q12142 1-255)
chain: B1 chain with A164L, A165F, L188A, F189A

binding [2]: no binding (tested: 1 μM)
B3: Atg9-NTD-(1–255)-mCherry M1+M2 (L164A/F165A/L188A/F189A) (domain or fragment, UniProt Q12142 1-255)
chain: B1 chain with L188A, F189A

binding [3]: binds | binding [4]: no binding
B4: mCh-Atg11 (protein, UniProt Q12527 1-1178)
chain: T1 sequence
